# Test results reported in the supplement of paper PMC6828730.
# The other results are listed elsewhere or left out. Repeats are few or missing, and single values can be far off.
# Test system: hiPSC-derived cardiomyocytes
# Assay: time to death of most cells in well after compound addition (days); higher = less cardiotoxic
# Conditions: screen: 1; 10 µM
row,Structure (SMILES),time to death of most cells in well
1,CCN(C)S(=O)(=O)Nc1ccc(F)c(C(=O)c2c[nH]c3ncc(-c4cnc(C5CC5)nc4)cc23)c1F,> 7
2,COc1cccc2cc(-c3nc([C@H]4CC[C@H](C(=O)O)CC4)n4ncnc(N)c34)[nH]c12,> 7
3,CN1CCN(c2ccc(-c3ccncc3-c3cc(F)c(O)c(F)c3)cc2)CC1,> 7
4,C#Cc1cccc(Nc2ncnc3cc4c(cc23)OCCOCCOCCO4)c1 [Icotinib],> 7
5,COc1cc2c(Oc3ccc(NC(=O)C4(C(=O)Nc5ccc(F)cc5)CC4)cc3F)ccnc2cc1OCCCN1CCOCC1,4
6,CCN(CC)CCNC(=O)c1c(C)[nH]c(/C=C2\C(=O)Nc3ccc(F)cc32)c1C [Sunitinib Malate],3
7,CC(C)(C)c1cc(C=C(C#N)C#N)cc(Br)c1O,> 7
8,C[C@H](NC(=O)/C(C#N)=C/c1cccc(Br)n1)c1ccccc1,> 7
9,"CO[C@H]1C[C@@H]2CC[C@@H](C)[C@@](O)(O2)C(=O)C(=O)N2CCCC[C@H]2C(=O)O[C@H]([C@H](C)C[C@@H]2CC[C@@H](OP(C)(C)=O)[C@H](OC)C2)CC(=O)[C@H](C)/C=C(\C)[C@@H](O)[C@@H](OC)C(=O)[C@H](C)C[C@H](C)/C=C/C=C/C=C/1C [Ridaforolimus (Deforolimus, MK-8669)]",5.5
10,Oc1ccc2ccccc2c1SSc1c(O)ccc2ccccc12,2

# Test system: hiPSC-derived cardiomyocytes
# Assay: time to death of most cells in well after compound addition (days); higher = less cardiotoxic; extreme values may be limits of the assay
# Conditions: screen: 2; 10 µM
row,Structure (SMILES),time to death of most cells in well
1,O=c1c(O)c(-c2ccc(O)c(O)c2)oc2cc(O)cc(O)c12 [Quercetin],> 7
2,N#C/C(=C(/N)Sc1ccc(N)cc1)c1ccccc1C(F)(F)F,> 7
3,CN1CCN(Cc2ccc(-c3cnc4[nH]cc(-c5ccc6[nH]ccc6c5)c4c3)cc2)CC1,1
4,Cc1ccc(C(=O)Nc2ccc(CN3CCN(C)CC3)c(C(F)(F)F)c2)cc1C#Cc1cnc2[nH]ncc2c1 [GZD824 Dimesylate],1
5,C=CC(=O)Nc1ccc2ncnc(Nc3ccc(OCc4cccc(F)c4)c(Cl)c3)c2c1,> 7
6,C=CC(=O)N1CCC[C@@H](n2nc(-c3ccc(Oc4ccccc4)cc3)c3c(N)ncnc32)C1,5.5
7,CCN(CC)CCCC(C)Nc1ccnc2cc(Cl)ccc12 (stereo not drawn) [Chloroquine Phosphate],4.5
8,C[C@]1(O)C[C@@H](c2nc(-c3ccc4ccc(-c5ccccc5)nc4c3)c3c(N)nccn32)C1 [Linsitinib (OSI-906)],> 7
9,O=C(NOC[C@H](O)CO)c1ccc(F)c(F)c1Nc1ccc(I)cc1F,3
10,CS(=O)(=O)CCNCc1ccc(-c2ccc3ncnc(Nc4ccc(OCc5cccc(F)c5)c(Cl)c4)c3c2)o1 [Lapatinib],> 7
11,c1cncc(CN2CCC(n3ncc4c(N5CCOCC5)nc(-c5ccc6[nH]ccc6c5)nc43)CC2)c1,4
12,O=C1NC(=O)/C(=C/c2ccc(-c3ccc(F)cc3O)o2)S1,> 7
13,O=C(Nc1nc2cccc(-c3ccc(CN4CCS(=O)(=O)CC4)cc3)n2n1)C1CC1 [Filgotinib (GLPG0634)],2
14,Cc1cc(C)c(/C=C2\C(=O)Nc3ccccc32)[nH]1 [Semaxanib (SU5416)],> 7
15,"CN1CCN(c2ccc3nc(-c4c(N)c5c(F)cccc5[nH]c4=O)[nH]c3c2)CC1 [Dovitinib (TKI-258, CHIR-258)]",2.5
16,COc1cc2nccc(Oc3ccc(NC(=O)C4(C(=O)Nc5ccc(F)cc5)CC4)cc3)c2cc1OC [Cabozantinib malate (XL184)],> 7
17,CN(C)C/C=C/C(=O)Nc1cc2c(Nc3ccc(F)c(Cl)c3)ncnc2cc1O[C@H]1CCOC1 [Afatinib (BIBW2992)],3.5
18,Cc1cc(CS(=O)(=O)c2ccccc2)cc(OCc2ccc(CN3CCC[C@@H]3CO)cc2)c1,3
19,C=CC(=O)Nc1cccc(Nc2nc(Nc3ccc(OCCOC)cc3)ncc2F)c1,> 7

row,Structure (SMILES),time to death of most cells in well
1,Cc1ccc(NC(=O)c2ccc(CN3CCN(C)CC3)cc2)cc1Nc1nc(-c2cccnc2)cs1 [Masitinib (AB1010)],> 7
2,CC[C@@](C)(Nc1ccnc(-c2c[nH]c3ncccc23)n1)C(=O)NCC(F)(F)F [Decernotinib (VX-509)],5
3,CC(C)CC(NC(=O)C(Cc1ccccc1)NC(=O)C(CCC(N)=O)NC(=O)C(Cc1ccc(O)cc1)NC(=O)C(C)NC(=O)CNC(=O)C(CCCCN)NC(=O)C(Cc1c[nH]c2ccccc12)NC(=O)C(NC(=O)C(Cc1c[nH]c2ccccc12)NC(=O)C(CCCCN)NC(=O)CNC(=O)C(CC(N)=O)NC(=O)C(CCC(=O)O)NC(=O)C(Cc1c[nH]c2ccccc12)NC(=O)C(NC(=O)C(Cc1c[nH]c2ccccc12)NC(=O)C(CO)NC(=O)CNC(=O)C1CCCN1C(=O)C(Cc1c[nH]c2ccccc12)NC(=O)C(CCC(N)=O)NC(=O)C(Cc1ccccc1)NC(=O)CNC(=O)C(N)Cc1c[nH]cn1)C(C)O)C(C)O)C(=O)NC(CCCCN)C(=O)NCC(=O)NCC(=O)NCC(=O)NCC(=O)NC(CO)C(=O)NC(CCCNC(=N)N)C(=O)NC(CCCNC(=N)N)C(=O)NC(CCCNC(=N)N)C(=O)NC(CCCNC(=N)N)C(=O)NC(CCCNC(=N)N)C(=O)NC(CCCNC(=N)N)C(=O)NC(CCCNC(=N)N)C(=O)NC(CCCNC(=N)N)C(=O)NC(CCCNC(=N)N)C(=O)O (stereo not drawn),6.5
4,COc1cccc(-c2cc(=O)c3ccccc3o2)c1N,> 7
5,CN(c1ccccc1CNc1nc(Nc2ccc3c(c2)CC(=O)N3)ncc1C(F)(F)F)S(C)(=O)=O,6
6,CC(C)Nc1cc(-c2c[nH]c(C(=O)N[C@H](CO)c3cccc(Cl)c3)c2)c(Cl)cn1,> 7
7,N#Cc1c(O)c2c(-c3ccc(-c4ccccc4O)cc3)csc2[nH]c1=O,> 7
8,CN1CCC(COc2cnc(-c3cccc(Cn4nc(-c5cccc(C#N)c5)ccc4=O)c3)nc2)CC1,5.5
9,Nc1ncnc2c1c(-c1cnc3[nH]ccc3c1)nn2C1CCCC1,4
10,CCN(C)S(=O)(=O)Nc1ccc(F)c(C(=O)c2c[nH]c3ncc(-c4cnc(C5CC5)nc4)cc23)c1F,> 7
11,COc1cccc2cc(-c3nc([C@H]4CC[C@H](C(=O)O)CC4)n4ncnc(N)c34)[nH]c12,4
12,CN1CCN(c2ccc(-c3ccncc3-c3cc(F)c(O)c(F)c3)cc2)CC1,> 7
13,C#Cc1cccc(Nc2ncnc3cc4c(cc23)OCCOCCOCCO4)c1 [Icotinib],> 7
14,COc1cc2c(Oc3ccc(NC(=O)C4(C(=O)Nc5ccc(F)cc5)CC4)cc3F)ccnc2cc1OCCCN1CCOCC1,3
15,CCN(CC)CCNC(=O)c1c(C)[nH]c(/C=C2\C(=O)Nc3ccc(F)cc32)c1C [Sunitinib Malate],2
16,CC(C)(C)c1cc(C=C(C#N)C#N)cc(Br)c1O,> 7
17,C[C@H](NC(=O)/C(C#N)=C/c1cccc(Br)n1)c1ccccc1,6.5
18,"CO[C@H]1C[C@@H]2CC[C@@H](C)[C@@](O)(O2)C(=O)C(=O)N2CCCC[C@H]2C(=O)O[C@H]([C@H](C)C[C@@H]2CC[C@@H](OP(C)(C)=O)[C@H](OC)C2)CC(=O)[C@H](C)/C=C(\C)[C@@H](O)[C@@H](OC)C(=O)[C@H](C)C[C@H](C)/C=C/C=C/C=C/1C [Ridaforolimus (Deforolimus, MK-8669)]",5
19,Oc1ccc2ccccc2c1SSc1c(O)ccc2ccccc12,1.5
